Each structure is given as a SMILES string. The full ranking holds about 110,000 compounds; the median of “z-score” is about -0.1, and the highest 2% start at about 2. The list shows a part of the results.

Here are results for 31 compounds from PubChem BioAssay AID488969 (Vanderbilt High Throughput Screening Facility, 2010).

This assay deals with Metabotropic glutamate receptor 8 (Rattus norvegicus) (UniProt P70579). Put plainly: rat mGluR8 modulators via GIRK flux, primary screen, cell-based, thallium flux, HTS (AID 488969). Conditions: HEK293 rat mGluR8, GIRK (G protein-gated inwardly rectifying potassium channel) thallium flux, FluoZin2; at 10 µM; stronger effect = higher value; submaximal glutamate (EC20) added with thallium.
Sequence of UniProt P70579 (P70579 whole entry, looked up): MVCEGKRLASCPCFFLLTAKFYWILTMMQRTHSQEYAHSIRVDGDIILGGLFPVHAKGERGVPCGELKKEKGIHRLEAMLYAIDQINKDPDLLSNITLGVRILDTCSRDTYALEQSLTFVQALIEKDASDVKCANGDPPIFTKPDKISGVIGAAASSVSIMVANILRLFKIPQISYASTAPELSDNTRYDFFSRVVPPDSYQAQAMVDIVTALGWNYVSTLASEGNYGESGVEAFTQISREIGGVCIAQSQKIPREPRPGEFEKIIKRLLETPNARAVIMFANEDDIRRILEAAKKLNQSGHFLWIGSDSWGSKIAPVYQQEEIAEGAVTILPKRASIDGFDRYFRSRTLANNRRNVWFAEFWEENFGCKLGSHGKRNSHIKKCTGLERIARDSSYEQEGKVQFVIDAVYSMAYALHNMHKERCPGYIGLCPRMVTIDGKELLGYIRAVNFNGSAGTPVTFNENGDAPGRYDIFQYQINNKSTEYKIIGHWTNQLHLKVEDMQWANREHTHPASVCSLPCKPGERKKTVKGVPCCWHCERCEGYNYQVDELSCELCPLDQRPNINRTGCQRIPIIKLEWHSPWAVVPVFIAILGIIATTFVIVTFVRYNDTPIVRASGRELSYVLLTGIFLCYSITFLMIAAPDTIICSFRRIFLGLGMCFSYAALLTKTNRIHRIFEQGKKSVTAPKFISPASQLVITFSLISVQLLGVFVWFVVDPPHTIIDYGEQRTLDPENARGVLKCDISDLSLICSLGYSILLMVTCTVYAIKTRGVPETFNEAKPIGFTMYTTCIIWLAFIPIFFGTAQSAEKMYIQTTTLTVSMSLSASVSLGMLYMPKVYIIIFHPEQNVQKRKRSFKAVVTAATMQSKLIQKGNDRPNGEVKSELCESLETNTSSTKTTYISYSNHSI
Consider `CCN(CC)CCCn1c(=S)[nH]c2cc(C(=O)OC)ccc2c1=O`, for which the z-score is 0.199.

The compound `COC(=O)c1ccc(OC(=O)c2ccco2)cc1` had a z-score of 0.696.

In turn, `Cc1ccc(/C=N\NC(=O)C2COc3cc4ccccc4cc3O2)o1` (stereo unspecified) came in with a z-score of 0.956.

Consider `O=C(CSc1nc2ccccc2[nH]1)N=Nc1c(O)[nH]c2ccccc12`, for which the z-score was -0.572.

As to `COc1ccc2nc(SCc3ccccc3)nc(C)c2c1`, the z-score was -0.399.

In turn, `O=C(CSc1nc2cc(S(=O)(=O)N3CCOCC3)ccc2o1)NC1CCCc2ccccc21` (stereo unspecified) displayed a z-score of -0.421.

`N/C(=N\OC(=O)CC1CCCCC1)c1cccnc1` had a z-score of -0.219.

Turning to `COC(C(=O)Nc1ccc(F)cc1)c1ccccc1` (stereo unspecified), the z-score is 0.662.

Consider `O=Cc1cn(-c2ccccc2)nc1-c1cc2ccccc2oc1=O`, for which the z-score was -0.213.

On to `CC(C)(C)c1ccc(C(=O)OC/C(O)=C(\C#N)c2nc3ccccc3s2)cc1`, for which the z-score was -0.169.

Consider `COc1ccc(C(=O)N2CCN(c3nc4ccccc4o3)CC2)cc1OC`, for which the z-score is -0.0995.

The compound `Cc1onc(-c2ccccc2)c1C(=O)Nc1ccncc1` displayed a z-score of 0.37.

`Clc1ccc(Cn2c(-c3cccnc3Cl)nc3ccccc32)cc1` returned a z-score of -0.275.

`O=C(c1cn(-c2ccccc2)nc1-c1ccccc1)n1nnc2ccccc21`: the z-score was -0.0979.

As to `CS(=O)(=O)NC1c2cccc3cccc(c23)C1N1CCOCC1` (stereo unspecified), the z-score is -0.0469.

As to `CC(C)(C)C(=O)N1CCN(c2ccc([N+](=O)[O-])cc2Cl)CC1`, the z-score is -0.145.

`Cc1onc(-c2ccccc2)c1C(=O)N1CC(C)OC(C)C1` (stereo unspecified) showed a z-score of 0.301.

`CC1(C)CN(c2ccccc2)N(Cc2ccc(F)cc2)C1=O` returned a z-score of -0.0869.

Take `CC(C)OC(=O)c1cc(C(=O)c2cc(F)ccc2O)coc1=N`: the z-score is -0.176.

As for `Cc1cc2nnc(SC(C)C#N)n2c2ccccc12` (stereo unspecified), the z-score was -0.327.

Compound `Cc1ccc(-n2c3nc(=O)[nH]c(=O)c-3cc3c(C)nn(-c4ccccc4)c32)c(C)c1` returned a z-score of -0.277.

In turn, `Cc1ccc2nc(SCCC#N)nc(C)c2c1` registered a z-score of -0.366.

Compound `Cc1cc([N+](=O)[O-])nn1CCCC(=O)Nc1sc2c(c1C(N)=O)CCC(C)C2` (stereo unspecified) registered a z-score of -0.94.

`Cc1cc(N2C(=O)CC(Cc3ccc(Cl)cc3)C2=O)no1` (stereo unspecified) came in with a z-score of 1.17.

`CCc1cc2c(SCC(=O)Nc3ncc(Cl)c(C)c3Cl)ncnc2s1` gave a z-score of -0.572.

For `C/C(CC(=O)Nc1cccc(Cl)c1)=N\NC(=O)Cc1ccc(Cl)cc1`, the z-score is -0.0249.

Consider `O=S(=O)(Nc1ncnc2sc3c(c12)CCC3)c1ccc2ccccc2c1`, for which the z-score was -0.826.

With `O=C1C=C(c2ccccc2)CC(c2cccs2)C1n1cnc([N+](=O)[O-])c1` (stereo unspecified), the z-score is -1.17.

`CCOC(=O)c1ccc2c(c1)N(Cc1ccccc1C)C(=O)c1ccccc1S2=O` (stereo unspecified) returned a z-score of -0.502.

`NS(=O)(=O)c1ccc(NCc2c(F)cccc2Cl)cc1` gave a z-score of 0.253.

In the case of `Cc1c(NC(=O)c2ccc(Br)o2)cccc1C(=O)O`, the z-score is -0.024.
